Further values from the same series stand in other lists.
Tested on: PRISM panel of 845 cancer cell lines
Test: PRISM assay
Format: cell-based, human
Procedure: The PRISM cell set comprised 845 cell lines representing more than 45 lineages (see Supplementary Table S1 for cell line information), which largely overlapped with the Cancer Cell Line Encyclopedia; https://portals.broadinstitute.org/ccle). Cell lines were grown in RPMI without phenol red and supplemented with 10% or 20% FBS for adherent and suspended lines, respectively. Parental cell lines were stably infected with a unique 24-nucleotide DNA barcode via lentiviral transduction and blasticidin selection. After selection, barcoded cell lines were expanded and subjected to quality control (Mycoplasma contamination test, an SNP test for confirming cell line identity, and barcode ID confirmation). Approved cell lines were then pooled (20–25 cell lines per pool) based on doubling time similarity and frozen in assay-ready vials.
RMC-6236 was added to 384-well plates at 8-point concentration with 3-fold dilutions in triplicate. These assay-ready plates were then seeded with the thawed cell line pools. Adherent cell pools were plated at 1,250 cells per well, whereas suspension and mixed adherent/suspension pools were plated at 2,000 cells per well. Treated cells were incubated for 5 days, and then lysed. Lysate plates were collapsed together prior to barcode amplification and detection.
Each cell line's unique barcode is located in the 3′UTR of the blasticidin-resistance gene and therefore is expressed as mRNA. Total mRNA was captured using magnetic particles that recognize polyA sequences. Captured mRNA was reverse-transcribed into cDNA and then the sequence containing the unique PRISM barcode was amplified using PCR. Finally, Luminex beads that recognize the specific barcode sequences in the cell set were hybridized to the PCR products and detected using a Luminex scanner which reports the signal as a median fluorescent intensity (MFI).
• Each detection well contained 10 control barcodes in increasing abundances as spike-in controls. For each plate, we first create a reference profile by calculating the median of the log2(MFI) values across negative control wells for each of these spiked-in barcodes. • For each well, a monotonic smooth p-spline was fitted to map the spike-in control levels to the reference profile. Next, we transform the log2(MFI) for each cell barcode using the fitted spline to allow well-to-well comparisons by correcting for amplification and detection artifacts. • Next, the separability between negative and positive control treatments was assessed. In particular, we calculated the error rate of the optimum simple threshold classifier between the control samples for each cell line and plate combination. The error rate is a measure of the overlap of the two control sets and was defined as error = (FP + FN)/n, where FP is false positives, FN is false negatives, and n is the total number of controls. A threshold was set between the distributions of positive and negative control log2(MFI) values (with everything below the threshold said to be positive and above said to be negative) such that this value is minimized. Additionally, we also calculated the dynamic range of each cell line. […] Additionally, any cell line that had less than 2 passing replicates was also omitted for the sake of reproducibility. Finally, we computed viability by normalizing with respect to the median negative control for each plate.
For every gene with nonsilent mutations in at least four cell lines, we compared the AUC values between cells with and without those mutations using a t test. This analysis was carried out for (i) the full data set; (ii) excluding cell lines with nonsilent KRAS mutations; and (iii) excluding cell lines that have either KRAS or NRAS nonsilent mutations.

CCn1c(-c2cc(N3CCN(C)CC3)cnc2[C@H](C)OC)c2c3cc(ccc31)-c1csc(n1)C[C@H](NC(=O)[C@H]1C[C@@H]1C)C(=O)N1CCC[C@H](N1)C(=O)OCC(C)(C)C2 [RMC-6236]
RMC-6236: RevMed PRISM: AUC (NCIH1568_LUNG): 0.8053 | RMC-6236: RevMed PRISM: AUC (NCIH1573_LUNG, KRAS p.G12A): 0.765 | RMC-6236: RevMed PRISM: AUC (NCIH1581_LUNG): 0.8503 | RMC-6236: RevMed PRISM: AUC (NCIH1648_LUNG): 0.4542 | RMC-6236: RevMed PRISM: AUC (NCIH1650_LUNG): 0.8079 | RMC-6236: RevMed PRISM: AUC (NCIH1651_LUNG): 0.9567 | RMC-6236: RevMed PRISM: AUC (NCIH1693_LUNG): 0.8065 | RMC-6236: RevMed PRISM: AUC (NCIH1694_LUNG): 0.8734 | RMC-6236: RevMed PRISM: AUC (NCIH1703_LUNG): 0.7011 | RMC-6236: RevMed PRISM: AUC (NCIH1793_LUNG): 0.7652 | RMC-6236: RevMed PRISM: AUC (NCIH1876_LUNG): 0.9868 | RMC-6236: RevMed PRISM: AUC (NCIH1915_LUNG, HRAS p.Q61L): 0.7986 | RMC-6236: RevMed PRISM: AUC (NCIH1975_LUNG): 0.7099 | RMC-6236: RevMed PRISM: AUC (NCIH2009_LUNG, KRAS p.G12A): 0.6662 | RMC-6236: RevMed PRISM: AUC (NCIH2023_LUNG): 0.6627 | RMC-6236: RevMed PRISM: AUC (NCIH2052_PLEURA): 0.7108 | RMC-6236: RevMed PRISM: AUC (NCIH2087_LUNG, NRAS p.Q61K): 0.6223 | RMC-6236: RevMed PRISM: AUC (NCIH2171_LUNG): 1 | RMC-6236: RevMed PRISM: AUC (NCIH2172_LUNG): 0.7803 | RMC-6236: RevMed PRISM: AUC (NCIH2228_LUNG): 0.6053 | RMC-6236: RevMed PRISM: AUC (NCIH2347_LUNG, KRAS p.L19F, NRAS p.Q61R): 0.517 | RMC-6236: RevMed PRISM: AUC (NCIH2444_LUNG, KRAS p.G12V): 0.489 | RMC-6236: RevMed PRISM: AUC (NCIH2452_PLEURA): 0.9808 | RMC-6236: RevMed PRISM: AUC (NCIN87_STOMACH): 0.9908 | RMC-6236: RevMed PRISM: AUC (NIHOVCAR3_OVARY): 0.917 | RMC-6236: RevMed PRISM: AUC (NOMO1_HAEMATOPOIETIC_AND_LYMPHOID_TISSUE, KRAS p.G13D): 0.3781 | RMC-6236: RevMed PRISM: AUC (NP2_CENTRAL_NERVOUS_SYSTEM): 1 | RMC-6236: RevMed PRISM: AUC (NP5_CENTRAL_NERVOUS_SYSTEM): 1 | RMC-6236: RevMed PRISM: AUC (NUDHL1_HAEMATOPOIETIC_AND_LYMPHOID_TISSUE, KRAS p.A146T): 0.3893 | RMC-6236: RevMed PRISM: AUC (NUGC3_STOMACH): 0.4376 | RMC-6236: RevMed PRISM: AUC (OACM51_OESOPHAGUS): 0.6177 | RMC-6236: RevMed PRISM: AUC (OAW42_OVARY): 0.7978 | RMC-6236: RevMed PRISM: AUC (OCIC4P_OVARY): 0.8046 | RMC-6236: RevMed PRISM: AUC (OCILY132_HAEMATOPOIETIC_AND_LYMPHOID_TISSUE): 0.8446 | RMC-6236: RevMed PRISM: AUC (OCUG1_BILIARY_TRACT): 0.5217 | RMC-6236: RevMed PRISM: AUC (OE19_OESOPHAGUS): 0.6938 | RMC-6236: RevMed PRISM: AUC (ONCODG1_OVARY): 0.9179 | RMC-6236: RevMed PRISM: AUC (ONDA9_CENTRAL_NERVOUS_SYSTEM): 0.8553 | RMC-6236: RevMed PRISM: AUC (OSC20_UPPER_AERODIGESTIVE_TRACT): 0.7713 | RMC-6236: RevMed PRISM: AUC (OUMS23_LARGE_INTESTINE): 0.9616 | RMC-6236: RevMed PRISM: AUC (OV7_OVARY, KRAS p.G12D): 0.3448 | RMC-6236: RevMed PRISM: AUC (OV17R_OVARY): 0.9153 | RMC-6236: RevMed PRISM: AUC (OV56_OVARY, KRAS p.G12C): 0.7821 | RMC-6236: RevMed PRISM: AUC (OVTOKO_OVARY): 0.8289 | RMC-6236: RevMed PRISM: AUC (OZ_BILIARY_TRACT, KRAS p.Q61L): 0.6195 | RMC-6236: RevMed PRISM: AUC (P12ICHIKAWA_HAEMATOPOIETIC_AND_LYMPHOID_TISSUE, NRAS p.G12D): 0.2027 | RMC-6236: RevMed PRISM: AUC (PACADD119_PANCREAS, KRAS p.G12A): 0.6233 | RMC-6236: RevMed PRISM: AUC (PACADD137_PANCREAS): 0.6876 | RMC-6236: RevMed PRISM: AUC (PACADD161_PANCREAS, KRAS p.G12V): 0.3243 | RMC-6236: RevMed PRISM: AUC (PANC1_PANCREAS, KRAS p.G12D): 0.7528 | RMC-6236: RevMed PRISM: AUC (PANC0203_PANCREAS, KRAS p.G12D): 0.3296 | RMC-6236: RevMed PRISM: AUC (PANC0327_PANCREAS, KRAS p.G12V): 0.444 | RMC-6236: RevMed PRISM: AUC (PANC0403_PANCREAS, KRAS p.G12D): 0.3919 | RMC-6236: RevMed PRISM: AUC (PANC0504_PANCREAS, KRAS p.G12D): 0.3709 | RMC-6236: RevMed PRISM: AUC (PANC0813_PANCREAS, KRAS p.G12D): 0.5043 | RMC-6236: RevMed PRISM: AUC (PANC1005_PANCREAS, KRAS p.G12D): 0.6117 | RMC-6236: RevMed PRISM: AUC (PATU8902_PANCREAS, KRAS p.G12V): 0.6019 | RMC-6236: RevMed PRISM: AUC (PATU8988S_PANCREAS, KRAS p.G12V): 0.3696 | RMC-6236: RevMed PRISM: AUC (PATU8988T_PANCREAS, KRAS p.G12V): 0.6684 | RMC-6236: RevMed PRISM: AUC (PC14_LUNG): 0.707 | RMC-6236: RevMed PRISM: AUC (PEA1_OVARY): 0.9148 | RMC-6236: RevMed PRISM: AUC (PF382_HAEMATOPOIETIC_AND_LYMPHOID_TISSUE, NRAS p.G12S): 0.6853 | RMC-6236: RevMed PRISM: AUC (PFSK1_CENTRAL_NERVOUS_SYSTEM): 1 | RMC-6236: RevMed PRISM: AUC (PK1_PANCREAS, KRAS p.G12D): 0.5693 | RMC-6236: RevMed PRISM: AUC (PK8_PANCREAS, KRAS p.G12R): 0.452 | RMC-6236: RevMed PRISM: AUC (PK59_PANCREAS, KRAS p.G12D): 0.5182 | RMC-6236: RevMed PRISM: AUC (PLCPRF5_LIVER): 0.8433 | RMC-6236: RevMed PRISM: AUC (QGP1_PANCREAS, KRAS p.G12V): 0.5692 | RMC-6236: RevMed PRISM: AUC (RBE_BILIARY_TRACT, KRAS p.G12V): 0.3265 | RMC-6236: RevMed PRISM: AUC (RCC10RGB_KIDNEY): 0.8192 | RMC-6236: RevMed PRISM: AUC (RERFGC1B_STOMACH): 0.7342 | RMC-6236: RevMed PRISM: AUC (RERFLCAD1_LUNG, KRAS p.G12A): 0.6942 | RMC-6236: RevMed PRISM: AUC (RERFLCAD2_LUNG, KRAS p.G12V): 0.4143 | RMC-6236: RevMed PRISM: AUC (RERFLCAI_LUNG): 0.7756 | RMC-6236: RevMed PRISM: AUC (RERFLCMS_LUNG): 0.9753 | RMC-6236: RevMed PRISM: AUC (RH4_SOFT_TISSUE): 0.9095 | RMC-6236: RevMed PRISM: AUC (RH28_SOFT_TISSUE): 1 | RMC-6236: RevMed PRISM: AUC (RH36_SOFT_TISSUE, HRAS p.Q61K): 0.538 | RMC-6236: RevMed PRISM: AUC (RKO_LARGE_INTESTINE): 0.9213 | RMC-6236: RevMed PRISM: AUC (RL952_ENDOMETRIUM, HRAS p.Q61H): 0.4836 | RMC-6236: RevMed PRISM: AUC (RMGI_OVARY): 0.7524 | RMC-6236: RevMed PRISM: AUC (RMSYM_SOFT_TISSUE): 1 | RMC-6236: RevMed PRISM: AUC (RMUGS_OVARY): 0.8116 | RMC-6236: RevMed PRISM: AUC (RO82W1_THYROID): 0.7213 | RMC-6236: RevMed PRISM: AUC (RPMI7951_SKIN): 0.934 | RMC-6236: RevMed PRISM: AUC (RPMI8402_HAEMATOPOIETIC_AND_LYMPHOID_TISSUE, HRAS p.A134S): 0.9235 | RMC-6236: RevMed PRISM: AUC (RT4_URINARY_TRACT): 0.6078 | RMC-6236: RevMed PRISM: AUC (RT112_URINARY_TRACT): 0.3381 | RMC-6236: RevMed PRISM: AUC (RVH421_SKIN): 0.7708 | RMC-6236: RevMed PRISM: AUC (S117_THYROID): 0.7471 | RMC-6236: RevMed PRISM: AUC (SAOS2_BONE): 1 | RMC-6236: RevMed PRISM: AUC (SBC5_LUNG): 0.7492 | RMC-6236: RevMed PRISM: AUC (SCABER_URINARY_TRACT): 0.6211
